# Measurements taken from the supplement of paper PMC7826260.
# Some of the results follow. Each Rep nickase domain was tested in vitro on the same pool of single strands (1 h at 37 °C, 3 µM enzyme); the outer parts of the 90-letter strands are left off. The score is log2 (uncut reads / reads without enzyme); the lower, the more was cut; hits are not called. Because reads are shares of a total, they shift together; values above 0 arise when much of the pool is cut.
# Test system: T1, Rep nickase domain of Muscovy duck circovirus
# T1 sequence (residues 1-111, tag not shown): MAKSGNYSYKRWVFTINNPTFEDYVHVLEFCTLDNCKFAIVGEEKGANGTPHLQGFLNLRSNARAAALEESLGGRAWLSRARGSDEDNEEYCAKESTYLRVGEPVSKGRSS
# Test: uncleaved DNA left, log2 of reads against the no-enzyme library (log2 ratio); higher = less cleavage (more negative = more Rep cleavage of the k-mer); sequences stand for … in CTCGTCCG…ACCGGAGA
# Protocol: (§1)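 A pool of 90-nt single-stranded DNAs with seven random bases just before the constant AC of the nick site (name = the seven bases) was cut by 3 µM recombinant His6-SUMO-tagged Rep nickase domain (300 nM DNA, 50 mM HEPES pH 8.0, 50 mM NaCl, 1 mM MnCl2, 1 h, 37 °C, three replicates). Uncut DNA was amplified and sequenced.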
row,Sequence,uncleaved DNA left (log2)
1,CCGCCTC,-0.187
2,GTCCGCT,0.00942
3,AATTCCG,-0.0283
4,GATAAAG,0.0176
5,CTCCGCA,-0.0117
6,GCTCAAG,0.0246
7,GCCGATA,0.169
8,AATCTTT,-0.13
9,AGTCCCC,-0.122
10,TGTTTCG,-0.0133
11,CAAGCTA,-0.0157
12,CTGATAT,0.0108
13,CCTTTTC,-0.205
14,CGATCGA,0.0753
15,CGGTATT,-2.65
16,GGTCTGT,0.0116
17,CAGTATA,-0.0699
18,AAGTTGG,0.0118
19,GGATGGC,0.0688
20,TGATTTA,-0.132

row,Sequence,uncleaved DNA left (log2)
1,AAGATAA,0.0731
2,TGCCGGG,0.13
3,CTTCGGC,0.168
4,AGCCCGA,-0.102
5,AATTAAG,0.0383
6,CGGCCGA,-0.0343
7,GAAACCC,-0.0807
8,GACAGCT,-0.0153
9,GTTCAAA,-0.0391
10,CACTACA,-0.2
11,TCCATCC,0.0154
12,GTGCGAG,0.0797
13,CTGTCAA,0.054
14,CGAATTA,0.013
15,CTGAAAC,0.244
16,GCGAACT,-0.0576
17,TGGTGGT,-0.229
18,TGCGTAT,0.0157
19,ATCTCCC,-0.138
20,ATCTGCG,-0.0233

# Test system: T2, Rep nickase domain of banana bunchy top virus
# T2 sequence (residues 1-94, tag not shown): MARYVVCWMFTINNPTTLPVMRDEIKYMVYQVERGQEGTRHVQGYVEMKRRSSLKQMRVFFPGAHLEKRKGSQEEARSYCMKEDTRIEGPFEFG
# Test: as above
# Protocol: as §1
row,Sequence,uncleaved DNA left (log2)
1,CCGCCTC,-0.182
2,GTCCGCT,-0.0314
3,AATTCCG,-0.0057
4,GATAAAG,0.072
5,CTCCGCA,0.087
6,GCTCAAG,-0.0738
7,GCCGATA,0.0437
8,AATCTTT,-0.18
9,AGTCCCC,-0.0391
10,TGTTTCG,-0.124
11,CAAGCTA,-0.158
12,CTGATAT,-0.0283
13,CCTTTTC,-0.191
14,CGATCGA,0.0355
15,CGGTATT,-1.88
16,GGTCTGT,0.0614
17,CAGTATA,-0.339
18,AAGTTGG,-0.0913
19,GGATGGC,0.107
20,TGATTTA,-0.0624

row,Sequence,uncleaved DNA left (log2)
1,AAGATAA,0.0817
2,TGCCGGG,0.0287
3,CTTCGGC,0.0757
4,AGCCCGA,0.0158
5,AATTAAG,-0.0631
6,CGGCCGA,0.0915
7,GAAACCC,0.0573
8,GACAGCT,-0.0708
9,GTTCAAA,0.114
10,CACTACA,-0.345
11,TCCATCC,0.0238
12,GTGCGAG,0.0677
13,CTGTCAA,0.0684
14,CGAATTA,-0.0183
15,CTGAAAC,0.123
16,GCGAACT,0.00979
17,TGGTGGT,-0.0639
18,TGCGTAT,-0.146
19,ATCTCCC,-0.0587
20,ATCTGCG,-0.143

# Test system: T3, Rep nickase domain of cabbage leaf curl virus
# T3 sequence (residues 1-116, tag not shown): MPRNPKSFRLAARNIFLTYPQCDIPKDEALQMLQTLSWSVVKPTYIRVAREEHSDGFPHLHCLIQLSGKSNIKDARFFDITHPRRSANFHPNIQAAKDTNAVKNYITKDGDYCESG
# Test: as above
# Protocol: as §1
row,Sequence,uncleaved DNA left (log2)
1,CCGCCTC,0.0585
2,GTCCGCT,0.167
3,AATTCCG,-0.732
4,GATAAAG,-0.578
5,CTCCGCA,-0.0485
6,GCTCAAG,-0.546
7,GCCGATA,0.0681
8,AATCTTT,-0.797
9,AGTCCCC,0.596
10,TGTTTCG,-0.844
11,CAAGCTA,0.0241
12,CTGATAT,0.119
13,CCTTTTC,-0.169
14,CGATCGA,-0.207
15,CGGTATT,-0.283
16,GGTCTGT,0.502
17,CAGTATA,-0.234
18,AAGTTGG,-0.401
19,GGATGGC,0.674
20,TGATTTA,0.0615

row,Sequence,uncleaved DNA left (log2)
1,AAGATAA,-0.232
2,TGCCGGG,0.401
3,CTTCGGC,0.0239
4,AGCCCGA,0.459
5,AATTAAG,-0.783
6,CGGCCGA,-0.177
7,GAAACCC,0.179
8,GACAGCT,0.00296
9,GTTCAAA,0.384
10,CACTACA,-0.463
11,TCCATCC,0.0511
12,GTGCGAG,0.364
13,CTGTCAA,0.00829
14,CGAATTA,-0.13
15,CTGAAAC,0.0461
16,GCGAACT,0.0821
17,TGGTGGT,0.0774
18,TGCGTAT,-0.496
19,ATCTCCC,-0.188
20,ATCTGCG,0.144

# Test system: T4, Rep nickase domain of chickpea chlorotic dwarf virus
# T4 sequence (residues 1-124, tag not shown): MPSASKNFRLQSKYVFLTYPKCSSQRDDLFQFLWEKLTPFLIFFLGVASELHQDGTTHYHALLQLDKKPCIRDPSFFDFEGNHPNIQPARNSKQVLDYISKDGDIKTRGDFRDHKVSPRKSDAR
# Test: as above
# Protocol: as §1
row,Sequence,uncleaved DNA left (log2)
1,CCGCCTC,-0.0989
2,GTCCGCT,0.458
3,AATTCCG,0.154
4,GATAAAG,-0.468
5,CTCCGCA,-0.181
6,GCTCAAG,-0.286
7,GCCGATA,0.111
8,AATCTTT,-2.87
9,AGTCCCC,1.09
10,TGTTTCG,-0.19
11,CAAGCTA,0.585
12,CTGATAT,-0.223
13,CCTTTTC,-0.347
14,CGATCGA,-0.157
15,CGGTATT,-1.39
16,GGTCTGT,1.08
17,CAGTATA,-2.44
18,AAGTTGG,-0.586
19,GGATGGC,1.33
20,TGATTTA,-0.895

row,Sequence,uncleaved DNA left (log2)
1,AAGATAA,-0.0564
2,TGCCGGG,0.539
3,CTTCGGC,-0.0184
4,AGCCCGA,1.06
5,AATTAAG,-0.0884
6,CGGCCGA,-0.0107
7,GAAACCC,0.0638
8,GACAGCT,-0.864
9,GTTCAAA,0.965
10,CACTACA,-3.01
11,TCCATCC,-0.091
12,GTGCGAG,0.838
13,CTGTCAA,-0.0252
14,CGAATTA,-0.877
15,CTGAAAC,-0.158
16,GCGAACT,0.369
17,TGGTGGT,0.461
18,TGCGTAT,-0.808
19,ATCTCCC,-0.133
20,ATCTGCG,1.28

# Test system: T5, Rep nickase domain of faba bean necrotic yellows virus
# T5 sequence (residues 1-98, tag not shown): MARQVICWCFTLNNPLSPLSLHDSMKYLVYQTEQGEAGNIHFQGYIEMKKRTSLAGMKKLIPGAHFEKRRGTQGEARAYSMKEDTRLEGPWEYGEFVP
# Test: as above
# Protocol: as §1
row,Sequence,uncleaved DNA left (log2)
1,CCGCCTC,-0.307
2,GTCCGCT,-0.0616
3,AATTCCG,-0.0273
4,GATAAAG,-0.0027
5,CTCCGCA,0.0312
6,GCTCAAG,-0.0594
7,GCCGATA,-0.0156
8,AATCTTT,0.0793
9,AGTCCCC,-0.037
10,TGTTTCG,-0.034
11,CAAGCTA,-0.0108
12,CTGATAT,-0.0125
13,CCTTTTC,-0.0253
14,CGATCGA,-0.0145
15,CGGTATT,-2.07
16,GGTCTGT,0.00578
17,CAGTATA,-0.611
18,AAGTTGG,0.0445
19,GGATGGC,0.122
20,TGATTTA,-0.0742

row,Sequence,uncleaved DNA left (log2)
1,AAGATAA,0.0552
2,TGCCGGG,0.095
3,CTTCGGC,0.0521
4,AGCCCGA,0.055
5,AATTAAG,0.109
6,CGGCCGA,0.0477
7,GAAACCC,-0.0251
8,GACAGCT,-0.024
9,GTTCAAA,0.0297
10,CACTACA,-0.114
11,TCCATCC,-0.0747
12,GTGCGAG,-0.00407
13,CTGTCAA,0.0251
14,CGAATTA,-0.0386
15,CTGAAAC,0.145
16,GCGAACT,-0.0475
17,TGGTGGT,-0.279
18,TGCGTAT,-0.0924
19,ATCTCCC,-0.171
20,ATCTGCG,-0.0416
